This is one part of the list.

The assay deals with T1, Caupolican (Caup) homeodomain DNA-binding domain.
T1 sequence: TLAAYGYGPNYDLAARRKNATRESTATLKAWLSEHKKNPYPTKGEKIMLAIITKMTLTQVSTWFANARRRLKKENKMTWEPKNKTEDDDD
As to the kind of experiment: PBM E-score (8-mer, recovered from the published 9-mer minima) (E-score (dimensionless, -0.5 to 0.5)); Drosophila protein; higher = stronger relative binding preference, active = 0.31 or more. In a few lines: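 Caup's homeodomain DNA-binding domain (residues 214-303) was produced by in vitro transcription and translation and applied at 100 nM to custom-designed protein binding microarrays. Each value is an enrichment score giving relative binding preference for a short DNA word; higher means stronger. Published 9-mer scores were the minimum of their two constituent 8-mer scores, and the 8-mer values were recovered from those minima. A cutoff of 0.31 marks candidate binding sequences.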
Consider AAAGTTCT, for which the “PBM E-score” value was inactive: -0.0156.
The result for ACGGCGAT reads not below 0.0135.
The result for ACGCGACG reads inactive: -0.0146.
Take CACTACAA: the “PBM E-score” value is inactive: 0.266.
For the sequence AATTTAGC, the “PBM E-score” value is inactive: -0.0582.
The result for CAAATCTG reads inactive: 0.0723; that for CTCCCCGA, inactive: -0.166; that for AAACTTCA, inactive: 0.0706.
With GATTAAGC, the “PBM E-score” value was inactive: -0.0591.
In the case of ACATAAGT, the “PBM E-score” value was inactive: 0.282.
The result for CGTCGCTA reads inactive: -0.0518; that for TCGGTCAA, inactive: 0.0561.
The result for CGCCTTGA reads inactive: -0.107.
The result for GCACTCCC reads inactive: -0.15; that for ATCGAGAT, inactive: 0.0306.
In the case of CCGACCTA, the “PBM E-score” value was inactive: -0.0546.
The result for GAAACTGA reads inactive: -0.0219; that for AAAGACCG, inactive: -0.0898; that for CGTTAACG, inactive: -0.0581.
Consider TGCCGTAA, for which the “PBM E-score” value was inactive: -0.0481.
With CAAGAACC the figure was inactive: 0.0713.
ATAATTCA: the “PBM E-score” value was inactive: 0.149.
With GAAGGCGC the figure was inactive: -0.223.
The result for GAGCCTAA reads inactive: 0.00798; that for AGCTATTA, inactive: 0.0848; that for CCGTTCCA, inactive: 0.
With TCTGACAA the figure was inactive: 0.217.
On to CGCAACTA, for which the “PBM E-score” value was inactive: 0.00578.
The result for CAAAGCGG reads inactive: -0.128.
With AGCGTCAT the figure was inactive: -0.00681; with CACTATGG, inactive: -0.0272; with CAATCCAG, inactive: -0.076.
As for CTTTACGC, the “PBM E-score” value is inactive: 0.0204.
Take GACTCGTA: the “PBM E-score” value is inactive: 0.0803.
With ACACATAG, the “PBM E-score” value was inactive: 0.174.
With AGAGTGTG the figure was inactive: 0.0333; with ACAGTTAG, inactive: 0.0221; with ATTGCAGC, inactive: 0.00162.
With ACAGCGGG the figure was inactive: -0.082; with ACTTGCAT, inactive: 0.137; with GCTACGTA, inactive: 0.0317.
With ATGCCTGG the figure was inactive: -0.043; with ACCTAAAC, inactive: 0.0229; with CCCATACA, inactive: 0.0806.
For the sequence CGGCTGCA, the “PBM E-score” value is inactive: -0.165.
The result for GTTCTACA reads inactive: 0.146; that for GGGGAAAA, inactive: -0.102; that for AGAAACCA, inactive: 0.0846.
With ATCCTAGC the figure was inactive: 0.0256; with AGATCGCC, inactive: -0.108.
The result for CATAGGAC reads inactive: 0.102; that for CAGAACGA, inactive: 0.112; that for CCCTGGCC, inactive: -0.3.
Consider CTTTATTC, for which the “PBM E-score” value was inactive: 0.0345.
With GAAGAAAA the figure was inactive: -0.00673.
The result for GCCACCGC reads inactive: -0.316; that for ATCGGTTA, not below 0.101; that for CACCCCTC, inactive: -0.0967.
The result for AGAAGAGG reads inactive: -0.176; that for ATAACTAC, inactive: 0.249.
As to ACCCGTGC, the “PBM E-score” value is inactive: -0.0824.
With CATAGTCA the figure was inactive: 0.134.
In the case of CAAGATTG, the “PBM E-score” value was inactive: 0.166.
As to CCTGCAGG, the “PBM E-score” value is inactive: -0.215.
With GTTTATAA the figure was inactive: 0.117; with CGACCTAA, inactive: -0.00057.
With CGAGTCTC the figure was inactive: -0.0882; with GGATGGGA, inactive: -0.0347; with CATGGTAC, inactive: 0.193.
With GCTTGGTA, the “PBM E-score” value is inactive: 0.112.
The result for AGGTCCTA reads inactive: -0.0805.
The result for TCGGTACA reads not below 0.287; that for CGCACTTA, inactive: -0.0449.
The result for ACGTCAGG reads inactive: -0.0595; that for CATCGGGG, inactive: -0.142; that for AAAGGCTG, inactive: -0.0527.
In the case of AAGAACGA, the “PBM E-score” value is inactive: 0.0536.
The result for CTGATCAC reads inactive: 0.0437; that for CACTTCTA, inactive: 0.0585; that for CCCGTGAG, inactive: -0.124.
The result for CCCGCAGG reads inactive: -0.28; that for TAGTACAA, active: 0.38; that for AAAAGCCA, inactive: -0.0723.
The result for GCTTTGAA reads inactive: -0.0195; that for TGATCCCA, inactive: -0.0801.
On to CACTACAG, for which the “PBM E-score” value is inactive: 0.114.
The result for CGGAGTAC reads inactive: -0.0348; that for GGTAACCA, inactive: 0.0779.
With ATGTAGTC the figure was active: 0.331; with GACGGGGA, inactive: -0.227.
The result for CGCGGGCC reads inactive: -0.272.
On to CCATTCAG, for which the “PBM E-score” value is inactive: -0.00284.
With CAGATGCC the figure was inactive: -0.121.
Regarding ACGTGAAC, the “PBM E-score” value was inactive: -0.0154.
Regarding ATTGTGGA, the “PBM E-score” value was not below 0.0838.
On to CGTGGAAC, for which the “PBM E-score” value is inactive: -0.0517.
The result for ACAGATAA reads inactive: 0.199; that for AATCAATC, inactive: 0.156.
The result for CTCCGTTA reads inactive: -0.0366; that for GATGTTAA, inactive: 0.28; that for CCCGAATC, inactive: -0.201.
With GTATGCGA the figure was inactive: 0.06; with TCGCCTCA, inactive: -0.146; with AGCGTACC, inactive: -0.17.
In the case of ATTATTTA, the “PBM E-score” value was inactive: 0.189.
The result for ATATTCGA reads inactive: 0.0446.
The result for CCTTACTA reads inactive: 0.0798; that for ACACTGTA, inactive: 0.205.
The result for TCCCAGAA reads inactive: -0.138; that for TCTCTCCA, inactive: -0.109; that for ATCCTCCC, inactive: -0.184.
As for CATTACCA, the “PBM E-score” value was inactive: 0.119.
